Measurements as given in patent US20160122793.

Biological target: T1, RL27_EVLFQGP_GLP-1(7-37,K34R)
T1 chain: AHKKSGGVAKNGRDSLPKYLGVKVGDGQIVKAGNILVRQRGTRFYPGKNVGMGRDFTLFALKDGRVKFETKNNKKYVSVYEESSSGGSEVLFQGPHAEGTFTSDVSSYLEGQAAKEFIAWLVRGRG

B1: Protease 20986, His-des182HRV14-XaaProDAP (Q241E, G242T) (protein)
chain: MHHHHHHGGSSGSGSGSGSGS[no letters for about 200 residues]GSGGSGGSGSMRFNHFSIVDKNFDEQLAELDQLGFRWSVFWDEKKILKDFLIQSPTDMTVLQANTELDVIEFLKSSIELDWEIFWNITLQLLDFVPNFDFEIGKATEFAKKLNLPQRDVEMTTETIISAFYYLLCSRRKSGMILVEHWVSEGLLPLDNHYHFFNDKSLATFDSSLLEREVVWVESPVDTEQKGKNDLIKIQIIRPKSTEKLPVVITASPYHLGINEKANDLALHEMNVDLEKKDSHKIHVETKLPQKRPSETKELPIVDKAPYRFTHGWTYSLNDYFLTRGFASIYVAGVGTRGSNGFQTSGDYQQIYSMTAVIDWLNGRTRAYTSRKKTHEIKATWANGKVAMTGKSYLGTMAYGAATTGVDGLEVILAEAGISSWYNYYRENGLVRSPGGFPGEDLDVLAALTYSRNLDGADYLKGNDEYEKRLAEMTTALDRKSGDYNQFWHDRNYLINSDQVRADVLIVHGLQDWNVTPEQAYNFWQALPEGHAKHAFLHRGAHIYMNSWQSIDFSETINAYFSAKLLDRDLNLNLPPVILQENSKEQVWSAVSKFGGDDQLKLPLGKTAVSFAQFDNHYDDESFKKYSKDFNVFKKDLFENKANEAVIDLELPSELTINGPIELEIRLKLNDSKGLLSAQILDFGPKKRLEDKARVKDFKVLDRGRNFMLDDLVELPLVESPYQLVTKGFTNLQNKDLLTVSDLKADEWFTLKFELQPTIYHLEKADKLRVILYSTDFEHTVRDNRKVTYEIDLSQSKLIIPIESVKKGSS
  cleavage of fusion protein substrate, LC-MS: all able to fully process the RL27_EVLFQGP_GLP-1 in to mature GLP-1(7-37,K34R)
  cleavage of fusion protein substrate, LC-MS, 1:500, 4 C overnight: optimal cleavage conditions using 1:500 enzyme to substrate ratio with overnight incubation at 4° C., without detectable contributions of fragments derived from unspecific or incomplete processing
